Test results reported in patent EP0299620A1, “Thiazolidinedione derivatives” (BEECHAM GROUP PLC, priority 1987, dated 1989).
The name of at least one read-out is uncertain.

Test system: C57b1/6 obese (ob/ob) mice
Test: Obese mice, oral glucose tolerance test
Format: in vivo
Conditions: level in diet 0.3 mmol kg^-1 of diet; 8 days on supplemented diet; fasted 5 hours; oral glucose load 3 g/kg; blood samples 0-135 min; versus control groups

SMILES | %REDUCTION IN AREA UNDER BLOOD GLUCOSE CURVE
Cc1oc(-c2ccccc2)nc1C(O)c1cc2cc(CC3SC(=O)NC3=O)ccc2o1 (stereo not drawn) [Example 1, 5-[[2-[(5-Methyl-2-phenyl-4-oxazolyl)hydroxymethyl]benzofuran-5-yl)methyl]-2,4-thiazolidinedione] | 62%
O=C1NC(=O)C(Cc2ccc3oc(C(=O)c4ccccc4)cc3c2)S1 (stereo not drawn) [Example 7, 5-[(2-Benzoylbenzofuran-5-yl)methyl]-2,4-thiazolidinedione] | 46%
COc1cc(CC2SC(=O)NC2=O)cc2cc(C(=O)c3nc(-c4ccccc4)oc3C)oc12 (stereo not drawn) [Example 23, 5-[[7-Methoxy-2-[(5-methyl-2-phenyl-4-oxazolyl)carbonyl]benzofuran-5-yl]methyl]-2-4-thiazolidinedione] | 27%
COc1cc(CC2SC(=O)NC2=O)cc2cc(C(O)c3nc(-c4ccccc4)oc3C)oc12 (stereo not drawn) [Example 22, 4-[[7-Methoxy-2-[(5-methyl-2-phenyl-4-oxazolyl) hydroxymethyl]benzofuran-5-yl]methyl]-2,4-thiazolidinedione] | 33%
Cc1c(Cc2ccccc2)oc2ccc(CC3SC(=O)NC3=O)cc12 (stereo not drawn) [Example 15, 5-[(2-Benzyl-3'-methylbenzofuran-5-yl)methyl]-2,4-thiazolidinedione] | 42%
Nc1c(Cl)cc(C(O)c2cc3cc(CC4SC(=O)NC4=O)ccc3o2)cc1Cl (stereo not drawn) [Example 29] | 47%
Cc1oc(-c2ccccc2)nc1C(O)c1oc2ccc(CC3SC(=O)NC3=O)cc2c1-c1ccccc1 (stereo not drawn) [Example 19, 5-[[2-[(5-Methyl-2-phenyl-4-oxazolyl)hydroxymethyl]-3-phenylbenzofuran-5-yl]methyl]-2,4-thiazolidinedione] | 34%
Cc1c(C(=O)c2ccccc2)oc2ccc(CC3SC(=O)NC3=O)cc12 (stereo not drawn) [Example 14] | 19%
O=C1NC(=O)C(Cc2ccc3sc(C(=O)c4ccccc4)cc3c2)S1 (stereo not drawn) [Example 26, 5-[(2-Benzoylbenzo(b)thien-5-yl)methyl]-2,4-thiazolidinedione] | 19%
O=C1NC(=O)C(Cc2ccc3oc(Cc4cccc(Cl)c4)cc3c2)S1 (stereo not drawn) [Example 11, 5-[[2-(3-Chlorobenzyl)benzofuran-5-yl]methyl]-2,4-thiazolidinedione] | 29%
O=C1NC(=O)C(Cc2ccc3oc(C(O)c4cccc(Cl)c4)cc3c2)S1 (stereo not drawn) [Example 10] | 29%
Cc1oc(-c2ccccc2)nc1C(=O)c1oc2ccc(CC3SC(=O)NC3=O)cc2c1-c1ccccc1 (stereo not drawn) [Example 18, 5-[[2-[(5-Methyl-2-phenyl-4-oxazolyl)carbonyl]-3-phenylbenzofurarr-5-yl]methyl]-2,4-thiazolidinedione] | 11%
Cc1oc(-c2ccccc2)nc1C(=O)c1cc2cc(C=C3SC(=O)NC3=O)ccc2o1 [Example 3, 5-[[2-[(5-Methyl-2-phenyl-4-oxazolyl)carbonyl]benzofuran-5-yl]methylene]-2,4-thiazolidinedione] | 12%
O=C1NC(=O)C(Cc2ccc3oc(C(O)c4ccccc4)nc3c2)S1 (stereo not drawn) [Example 30] | 49%

Same assay, conditions: level in diet 1.0 mmol kg^-1 of diet; 8 days on supplemented diet; fasted 5 hours; oral glucose load 3 g/kg; blood samples 0-135 min; versus control groups

SMILES | %REDUCTION IN AREA UNDER BLOOD GLUCOSE CURVE
O=C1NC(=O)C(Cc2ccc3oc(Cc4ccccc4)cc3c2)S1 (stereo not drawn) [Example 6, 5-[(2-Benzylbenzofuran-5-yl)methyl]-2,4-thiazolidinedione] | 51%
Nc1c(Cl)cc(C(=O)c2cc3cc(CC4SC(=O)NC4=O)ccc3o2)cc1Cl (stereo not drawn) [Example 27, 5-[[2-[4-Amino-3,5-dichlorobenzoyl]benzofuran-5-yl]methyl]-2,4-thiazolidinedione] | 50%
O=C1NC(=O)C(Cc2ccc3oc(C(O)c4ccccc4)cc3c2)S1 (stereo not drawn) [Example 5, 5-[[2-(α-Hydroxybenzyl)benzofuran-5-yl]]methyl-2,4-thiazolidinedione] | 43%

Same assay, conditions: level in diet 2.0 mmol kg^-1 of diet; 8 days on supplemented diet; fasted 5 hours; oral glucose load 3 g/kg; blood samples 0-135 min; versus control groups

SMILES | %REDUCTION IN AREA UNDER BLOOD GLUCOSE CURVE
Cc1oc(-c2ccccc2)nc1C(=O)c1cc2cc(CC3SC(=O)NC3=O)ccc2o1 (stereo not drawn) [Example 2, 5-[[2-[(5-Methyl-2-phenyl-4-oxazolyl)carbonyl]benzofuran-5-yl]methyl]-2,4-thiazolidinedione] | 63%
